Assay results as given in PubChem BioAssay AID504333 (National Center for Advancing Translational Sciences (NCATS), 2011).
Values joined by “and” are separate entries in the source; they are usually repeats but may differ in a detail not shown here. Identical values can stand only once. Screen size: about 360,000 compounds; about 16,000 (4.4%) were called active. Inconclusive results, whose numbers are uncertain, are shown with a selection of clear calls. Calls come from the whole dose curve; as a rule, active = well fitted inhibition curve with a large enough effect; inconclusive = small, poorly fitted or top-dose-only effect; inactive = no such curve, though single readings can be large or run the other way. Potencies of inconclusive entries are doubtful fits and often do not repeat.

Target: Bromodomain adjacent to zinc finger domain protein 2B (Homo sapiens) (UniProt Q9UIF8)
Chain of UniProt Q9UIF8 (Q9UIF8 whole entry, looked up, the tested form may be a part): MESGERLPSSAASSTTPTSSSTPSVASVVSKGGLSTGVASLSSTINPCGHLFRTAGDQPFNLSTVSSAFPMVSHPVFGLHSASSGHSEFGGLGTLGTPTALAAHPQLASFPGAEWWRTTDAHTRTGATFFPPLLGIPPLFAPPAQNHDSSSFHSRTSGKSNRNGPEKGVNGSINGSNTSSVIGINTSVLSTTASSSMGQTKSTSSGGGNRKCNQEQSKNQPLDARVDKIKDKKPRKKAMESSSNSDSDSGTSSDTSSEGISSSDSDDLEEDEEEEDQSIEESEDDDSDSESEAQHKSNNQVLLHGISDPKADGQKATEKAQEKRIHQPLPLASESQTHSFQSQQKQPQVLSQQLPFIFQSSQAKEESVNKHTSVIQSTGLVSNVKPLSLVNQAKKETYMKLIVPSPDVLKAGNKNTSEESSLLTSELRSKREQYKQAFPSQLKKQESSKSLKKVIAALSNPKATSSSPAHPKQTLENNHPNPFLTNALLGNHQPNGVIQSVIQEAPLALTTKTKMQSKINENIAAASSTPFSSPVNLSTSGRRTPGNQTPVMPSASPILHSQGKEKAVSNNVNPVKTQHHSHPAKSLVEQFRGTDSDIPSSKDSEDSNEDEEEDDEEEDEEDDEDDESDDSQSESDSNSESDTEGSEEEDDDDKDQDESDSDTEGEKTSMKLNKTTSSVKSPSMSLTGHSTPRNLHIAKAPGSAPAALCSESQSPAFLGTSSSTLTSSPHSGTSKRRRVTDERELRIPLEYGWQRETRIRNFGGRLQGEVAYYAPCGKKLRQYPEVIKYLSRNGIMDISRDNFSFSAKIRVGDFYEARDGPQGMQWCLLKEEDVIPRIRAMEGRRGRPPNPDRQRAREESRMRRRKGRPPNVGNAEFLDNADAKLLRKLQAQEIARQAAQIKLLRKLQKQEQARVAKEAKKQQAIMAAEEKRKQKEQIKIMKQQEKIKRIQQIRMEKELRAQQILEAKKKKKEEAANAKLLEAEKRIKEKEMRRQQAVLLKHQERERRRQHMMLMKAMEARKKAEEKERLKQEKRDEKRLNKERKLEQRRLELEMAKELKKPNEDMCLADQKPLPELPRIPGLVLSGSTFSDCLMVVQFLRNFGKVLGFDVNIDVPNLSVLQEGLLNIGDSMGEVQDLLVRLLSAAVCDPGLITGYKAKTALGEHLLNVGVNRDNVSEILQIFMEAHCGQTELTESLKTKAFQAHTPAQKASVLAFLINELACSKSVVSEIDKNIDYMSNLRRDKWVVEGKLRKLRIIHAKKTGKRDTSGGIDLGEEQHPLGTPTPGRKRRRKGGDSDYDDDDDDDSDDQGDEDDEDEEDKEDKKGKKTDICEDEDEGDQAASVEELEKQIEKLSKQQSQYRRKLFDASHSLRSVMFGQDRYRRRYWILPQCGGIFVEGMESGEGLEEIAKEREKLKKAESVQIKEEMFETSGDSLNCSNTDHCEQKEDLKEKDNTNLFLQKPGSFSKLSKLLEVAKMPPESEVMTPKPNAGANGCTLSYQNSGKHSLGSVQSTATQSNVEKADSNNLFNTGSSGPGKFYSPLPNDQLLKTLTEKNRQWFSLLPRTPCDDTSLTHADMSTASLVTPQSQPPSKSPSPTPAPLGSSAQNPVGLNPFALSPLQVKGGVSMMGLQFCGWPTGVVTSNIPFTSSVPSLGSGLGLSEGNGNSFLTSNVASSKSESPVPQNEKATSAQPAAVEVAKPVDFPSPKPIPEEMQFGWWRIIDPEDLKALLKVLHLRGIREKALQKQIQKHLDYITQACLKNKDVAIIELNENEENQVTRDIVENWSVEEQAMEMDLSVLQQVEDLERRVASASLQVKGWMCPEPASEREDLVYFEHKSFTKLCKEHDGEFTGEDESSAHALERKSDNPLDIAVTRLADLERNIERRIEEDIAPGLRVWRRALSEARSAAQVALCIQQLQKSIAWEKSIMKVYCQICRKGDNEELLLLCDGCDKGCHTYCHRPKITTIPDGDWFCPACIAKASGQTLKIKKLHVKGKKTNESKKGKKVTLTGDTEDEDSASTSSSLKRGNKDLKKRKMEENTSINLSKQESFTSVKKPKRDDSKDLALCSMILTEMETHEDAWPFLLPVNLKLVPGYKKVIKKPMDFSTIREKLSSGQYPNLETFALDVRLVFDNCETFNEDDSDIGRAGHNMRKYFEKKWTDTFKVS
Assay: qHTS Assay for Inhibitors of BAZ2B; note: nearly all actives have a fitted effect of over 60% in size
Conditions: AlphaScreen BAZ2B-H3K14Ac peptide displacement; activity change, negative = inhibition: at 114 µM (top of the series)
How it was run: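 Compounds, titrated to a top concentration of 110 uM, were incubated 30 min at room temperature with preformed BAZ2B/acetyl-K14 H3 peptide complex (50 nM each). Proximity signal was measured by AlphaScreen after 20 min with beads.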
% is set by controls: 0 for no effect and ±100 for the full control effect; potency is the fitted concentration of half-maximal effect; tags give direction and shape of the fitted curve.

Structure (SMILES) | Potency | activity change, negative = inhibition
CCCCc1ccc(C2C3=C(CC(C)(C)CC3=O)NC3=C2C(=O)c2ccccc23)cc1 (stereo not given) | inconclusive: 0.708 µM [inhibitor, full curve, poor fit] | 
O=C(NC1CCCCC1)c1ccc(COc2ccccc2)o1 |  | inactive: -3.53%
COc1ccccc1/C=C1\SC(=S)N(CCC(=O)Nc2cccc(O)c2)C1=O | inconclusive: 20 µM [inhibitor, partial curve] | 
CCN(CC)CCCNC(=O)Cc1csc2nc(-c3ccc(Cl)cc3)cn12 | inconclusive: 79.4 µM [inhibitor, single point] | 
Cc1cc2cc(CNS(=O)(=O)c3ccc4ccccc4c3)ccc2n1C | inconclusive: 79.4 µM [inhibitor, partial curve] | 
O=c1[nH]c(CN2CCN(S(=O)(=O)/C=C/c3ccccc3)CC2)nc2ccccc12 | inconclusive: 70.8 µM [inhibitor, single point] | 
COc1cccc(CNc2ccc3[nH]c(=O)[nH]c3c2)c1OCc1ccccc1 | active: 44.7 µM | 
CN1C(=O)Cc2cc(S(=O)(=O)N3CCOCC3)ccc21 |  | inactive: 7.38%
COc1cccc(NC(=O)CN(CCc2ccccc2)S(=O)(=O)c2ccc(Cl)cc2)c1 | inconclusive: 79.4 µM [inhibitor, single point] | 
COc1ccccc1CN(C)C(=O)c1ccc2c(c1)NC(=O)CS2 |  | inactive: 12.3%
Cc1nc(C/C(=N\Nc2ccccc2)c2ccc(O)cc2O)cs1 | active: 50.1 µM | 
COC(=O)c1cnc2c(C(F)(F)F)cccc2c1OC |  | inactive: 3.57%
Cc1ccccc1NC(=O)Cn1c(=O)n(Cc2ccc3c(c2)OCO3)c(=O)c2ccccc21 | inconclusive: 89.1 µM [inhibitor, single point] | 
O=C(O/N=C1\CCCCC1c1ccc([N+](=O)[O-])cc1[N+](=O)[O-])c1c(F)cccc1F (stereo not given) | inconclusive: 35.5 µM [inhibitor, full curve] | 
CN1CCN(Cc2cc(COCc3ccccc3)c3cccnc3c2O)CC1 | active: 8.91 µM and active: 10 µM | 
OCC1(Cc2ccccc2)CCN(Cc2ccccn2)CC1 |  | inactive: -0.426%
Cc1ccc(OCc2cc(C(=O)N(C)Cc3nccn3C)no2)cc1C | inconclusive: 79.4 µM [inhibitor, partial curve] | 
COc1ccccc1C(=O)Nc1ccnn1C1CCN(Cc2ncc[nH]2)CC1 |  | inactive: -27.1%
COc1ccc(C2=NN(C(=O)CSc3nc4ncc(Cl)cc4[nH]3)C(c3ccco3)C2)cc1 (stereo not given) |  | inactive: -34.7%
CCOc1ccc(N=Cc2c(O)n(-c3cccc(C)n3)c(=O)c3ccccc23)cc1 | inconclusive: 79.4 µM [inhibitor, single point] | 
O=C(COC(=O)/C=C/c1ccco1)NCc1ccccc1 |  | inactive: -36.4%
Cc1ccc(S(=O)(=O)c2nc(S(=O)(=O)c3ccccc3)sc2NCCCOC(C)C)cc1 |  | inactive: 3.09%
Cc1ccc2nc(-c3ccncc3)[nH]c2c1 | inconclusive: 89.1 µM [inhibitor, single point] | 
Cc1ccccc1Oc1nc(-c2ccccn2)nc2ccccc12 | inconclusive: 2.82 µM [inhibitor, full curve, poor fit] | 
CCN(CC)c1ccc(/C=N/NC(=O)c2cc3ccccc3[nH]2)cc1 | inconclusive: 39.8 µM [inhibitor, full curve, poor fit] | 

Structure (SMILES) | Potency | activity change, negative = inhibition
COc1ccc(Nc2c(-c3cccc(O)c3)nc3cnccn23)cc1 | inconclusive: 50.1 µM [inhibitor, partial curve] | 
N#C/C(=N\Nc1ccc(S(=O)(=O)N2CCOCC2)cc1)C(N)=S | inconclusive: 39.8 µM [inhibitor, partial curve] | 
C=CCOC(=O)C1=C(C)NC(=O)NC1c1ccc2c(c1)OCO2 (stereo not given) | inconclusive: 89.1 µM [inhibitor, single point] | 
CCCOc1ccc(-c2nc(SCC(=O)c3ccc(Cl)cc3)n[nH]2)cc1 |  | inactive: -21.2%
O=C(NC(=S)NC1CCCc2ccccc21)c1ccc(F)cc1 (stereo not given) | inconclusive: 56.2 µM [inhibitor, single point] | 
CC1CN(CCOc2ccccc2[N+](=O)[O-])CC(C)O1 (stereo not given) | active: 25.1 µM | 
Cc1ccc(CNC(=O)CN(C(=O)C2(C)CC(=O)N=C3C=CC=CN32)c2ccccc2)cc1 (stereo not given) |  | inactive: 4.76%
CCCCC(=O)Nc1nnc(CCc2ccccc2)s1 | inconclusive: 89.1 µM [inhibitor, single point] | 
COc1ccc(-c2csc(=Nc3ccccc3)n2CCO)cc1F | active: 50.1 µM | 
CC1CCCN(c2nc3ccccc3nc2C(C#N)S(=O)(=O)c2cccs2)C1 (stereo not given) | inconclusive: 79.4 µM [inhibitor, partial curve] | 
CCOc1ccc(C(=O)NCCN2CCCCC2)c(OCC)c1 |  | inactive: -7.67%
COc1cccc(CNC(=O)CSc2ccc(-c3ccccn3)nn2)c1 | active: 12.6 µM | 
CCOC(=O)c1c(Nc2ccc(OC)cc2)nnc(-c2ccccc2)c1-c1ccccc1 | inconclusive: 8.91 µM [inhibitor, full curve] | 
Cc1onc(-c2ccccc2)c1C(=O)NC(=S)NNC(=O)c1ccccc1O | active: 35.5 µM | 
CC1CCC2C(=O)N(c3ccc(Cc4ccncc4)cc3)C(=O)C2C1 (stereo not given) |  | inactive: -14%
O=C(O)Cn1c(O)c(C=Nc2ccccc2)sc1=S | inconclusive: 89.1 µM [inhibitor, single point] | 
CC(C)NC(=O)c1onc(CSc2cccc3ccccc23)c1C(=O)O | inconclusive: 56.2 µM [inhibitor, partial curve] | 
Cc1nc(NC(=O)c2ccccc2)sc1-c1csc(Nc2ccc(F)cc2)n1 | inconclusive: 50.1 µM [inhibitor, partial curve] | 
CCOCCCn1cc(C(=O)c2cc(Br)ccc2O)cc(C#N)c1=O | active: 56.2 µM | 
COc1ccc(C)cc1Nc1cc(C)nc(C)n1 |  | inactive: -2.85%
N=c1n(CCN2CCCCC2)c2ccccc2n1CC(=O)c1cccs1 |  | inactive: -15.2%
O=C(NCCCn1ccnc1)/C(=C\c1ccccc1F)NC(=O)c1ccccc1 | inconclusive: 70.8 µM [inhibitor, single point] | 
CC1S/C(=N/N=C/c2ccco2)N(Cc2ccccc2)C1=O (stereo not given) | inconclusive: 35.5 µM [inhibitor, partial curve] | 
O=C(CCCN1C(=O)/C(=C/c2cccs2)SC1=S)Nc1ccccn1 | inconclusive: 12.6 µM [inhibitor, partial curve] | 
Cc1cc(C)c2nc3nc(C)c(C)cc3c(N)c2c1 |  | inactive: -24.1%

Structure (SMILES) | Potency | activity change, negative = inhibition
COc1cccc(NC(=O)C(=O)NCCCn2ccnc2)c1 | active: 79.4 µM | 
Cc1cc(NC(=O)CSc2nnc(-c3ccccc3)n2Cc2ccco2)no1 |  | inactive: 14%
Cc1c(Cl)cnc(NC(=O)COC(=O)c2ccc3ncsc3c2)c1Cl | active: 50.1 µM | 
CC(OC(=O)CNC(=O)c1ccccc1F)C(=O)Nc1nc(-c2ccccc2)cs1 (stereo not given) | inconclusive: 56.2 µM [inhibitor, partial curve] | 
COc1ccc(-n2c(C)cc(-c3cn4cccc(C)c4n3)c2C)cc1 | active: 39.8 µM | 
COc1ccc(NC2CCCN(C(=O)C3(C)CCCCC3)C2)cc1 (stereo not given) | active: 31.6 µM | 
COc1ccc(N2CCC(CNC(=S)Nc3c(C)cc(C)cc3C)C2)cc1 (stereo not given) | active: 20 µM | 
O=C(NCc1ccco1)c1ccccc1-c1nc(-c2ccccc2)no1 | active: 56.2 µM | 
CCN1CCN(c2ccc(S(=O)(=O)N3CCCCC3)cc2NC(=O)/C=C/c2ccc([N+](=O)[O-])cc2)CC1 | inconclusive: 70.8 µM [inhibitor, single point] | 
O=[N+]([O-])c1ccc(O)c(/C=N/NC(=S)Nc2ccc(Cl)cc2Cl)c1 | active: 31.6 µM | 
N#Cc1cc2c(nc1S(=O)(=O)Cc1ccccc1)CCCC2 |  | inactive: -5.9%
Cc1cccc(C2CC(=O)Nc3cc4c(cc32)OCO4)c1 (stereo not given) | inconclusive: 17.8 µM [inhibitor, full curve] | 
Cc1cc(NCCCn2ccnc2)n2nc(C)c(-c3ccccc3)c2n1 | inconclusive: 79.4 µM [inhibitor, single point] | 
COc1ccc(NC(=S)NC(NC(=O)c2ccc(Cl)cc2Cl)C(Cl)(Cl)Cl)c([N+](=O)[O-])c1 (stereo not given) | inconclusive: 25.1 µM [inhibitor, partial curve] | 
COc1ccccc1-c1noc(-c2ccc(NCC3CCCO3)c([N+](=O)[O-])c2)n1 (stereo not given) |  | inactive: -0.648%
Cc1cc(C)c(S(=O)(=O)NCC(c2ccc(N(C)C)cc2)N2CCOCC2)c(C)c1 (stereo not given) | active: 39.8 µM | 
O=C(CCC1COc2ccccc2O1)Nc1ccccn1 (stereo not given) |  | inactive: 7.64%
CCN(CC)CCN(C(=O)c1cc2ccccc2cc1OC)c1nc2ccc(F)cc2s1 | inconclusive: 12.6 µM [inhibitor, partial curve] | 
CCOC(=O)c1cnc2c(C)c(Cl)ccc2c1Nc1ccc(N2CCOCC2)cc1 | active: 10 µM | 
Cc1ccccc1Nc1c(-c2cccnc2)nc2ccc(Cl)cn12 |  | inactive: 0.825%
CCOC(=O)c1c(CN2CCOCC2)n(C)c2cc(Br)c(O)c(CN(C)C)c12 | inconclusive: 89.1 µM [inhibitor, single point] | 
O=C(Nc1ccc2nc(-c3ccc(Br)o3)[nH]c2c1)c1cccs1 | inconclusive: 31.6 µM [inhibitor, full curve] | 
COc1cc([N+](=O)[O-])cc(/C=N\NC(=O)C2COc3ccccc3O2)c1O (stereo not given) | active: 39.8 µM | 
Cc1nn(-c2ccccc2)c(C)c1-c1cc(C(=O)N/N=C/c2ccc(O)cc2)[nH]n1 |  | inactive: -19.6%
COc1ccc2c(c1)O[C@H](c1ccc3c(c1)OCO3)[C@@H](OC(=O)Nc1cc(OC)c(OC)c(OC)c1)C2=O | inconclusive: 79.4 µM [inhibitor, single point] | 
